Key:
human TGFβ1 [1] = target: T1, human TGFβ1 (human, UniProt P01137 part only); assay: ELISA; TGFβ1 coated, fusion titrated, anti-human Fc-HRP
T1 construct: also called hTGFβ-1; TGFb1

[2] = target: Mouse TGFβ1 (Novoprotein, CK33) (mouse, UniProt P04202 part only); assay: as above
[3] = target: T2, human PD-L1 expressed on cells (human, UniProt Q9NZQ7); assay: flow cytometry on EMT6/hPD-L1 cells, Mean FITC-A
T2 construct: whole, on cells; also called MC38/hPD-L1

[4] = target: T3, hPD-L1 (Acro Biosystems, PD1-H5229) (human, UniProt Q9NZQ7 part only); assay: ELISA, human PD-L1 coated, anti-human Fc-HRP, OD450
T3 construct: also called human PD-L1; hPD-L1 protein

cyno PD-L1 = target: T4, cyno PD-L1 (cynomolgus, UniProt G7PSE7 19-238); assay: ELISA, cyno PD-L1 coated, anti-human Fc-HRP, OD450
cyno PD-L1, sequence (G7PSE7 entry or part of it limits assumed): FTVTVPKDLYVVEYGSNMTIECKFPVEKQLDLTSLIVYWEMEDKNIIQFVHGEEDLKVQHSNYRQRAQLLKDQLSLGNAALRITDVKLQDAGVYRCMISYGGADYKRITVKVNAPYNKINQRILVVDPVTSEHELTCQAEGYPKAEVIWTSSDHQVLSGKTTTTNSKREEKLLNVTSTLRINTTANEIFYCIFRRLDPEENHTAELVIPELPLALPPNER
T4 construct: also called cynomolgus PD-L1

cynoPD-L1-Fc = cynoPD-L1-Fc (cynomolgus, UniProt G7PSE7 19-238, Fc carrier is left out of the letters.); assay: competition ELISA, cynoPD-L1-Fc coated; blocked ligand cyno PD-1-Fc-biotin, OD450
cynoPD-L1-Fc, sequence (G7PSE7 entry or part of it limits assumed): as above

human TGFβ1 [5] = target: T1, human TGFβ1; assay: cell-based or functional assay
T1 sequence (P01137 279-390 limits assumed): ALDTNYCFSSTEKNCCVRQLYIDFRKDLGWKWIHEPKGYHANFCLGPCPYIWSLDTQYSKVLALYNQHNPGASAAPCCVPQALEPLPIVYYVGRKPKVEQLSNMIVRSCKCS

VISTA = VISTA (UniProt Q9H7M9 33-194, limits assumed); assay: ELISA, antigen (0.5 ug/mL) coated, anti-human Fc-HRP, OD450
B7-H3 = target: T5, B7-H3 (UniProt Q5ZPR3 29-461, limits assumed); assay: as above
T5 sequence (looked up): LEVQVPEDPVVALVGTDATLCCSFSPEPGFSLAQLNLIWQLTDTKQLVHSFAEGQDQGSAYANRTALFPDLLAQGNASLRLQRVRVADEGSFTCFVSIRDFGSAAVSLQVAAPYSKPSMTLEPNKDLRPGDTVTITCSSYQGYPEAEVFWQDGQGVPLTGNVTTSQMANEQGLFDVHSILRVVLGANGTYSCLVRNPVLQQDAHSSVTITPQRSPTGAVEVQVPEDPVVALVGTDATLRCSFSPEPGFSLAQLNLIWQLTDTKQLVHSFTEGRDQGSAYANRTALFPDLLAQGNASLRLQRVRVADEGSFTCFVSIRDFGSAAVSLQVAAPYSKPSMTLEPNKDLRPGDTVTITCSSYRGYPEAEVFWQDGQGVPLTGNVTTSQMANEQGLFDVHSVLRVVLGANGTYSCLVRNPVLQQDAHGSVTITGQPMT

B7-H2 = target: T6, B7-H2 (UniProt O75144 19-258, limits assumed); assay: as above
T6 sequence (looked up): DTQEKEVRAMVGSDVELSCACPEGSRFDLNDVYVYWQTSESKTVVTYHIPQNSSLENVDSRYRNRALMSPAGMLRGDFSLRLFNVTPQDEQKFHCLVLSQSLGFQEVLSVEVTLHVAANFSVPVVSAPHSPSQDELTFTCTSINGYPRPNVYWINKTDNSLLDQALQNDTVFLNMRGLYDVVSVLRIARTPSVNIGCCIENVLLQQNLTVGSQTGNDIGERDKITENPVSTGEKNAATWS

B7-2 = target: T7, B7-2 (UniProt P42081 24-247, limits assumed); assay: as above
T7 construct: also called CD86
T7 sequence (looked up): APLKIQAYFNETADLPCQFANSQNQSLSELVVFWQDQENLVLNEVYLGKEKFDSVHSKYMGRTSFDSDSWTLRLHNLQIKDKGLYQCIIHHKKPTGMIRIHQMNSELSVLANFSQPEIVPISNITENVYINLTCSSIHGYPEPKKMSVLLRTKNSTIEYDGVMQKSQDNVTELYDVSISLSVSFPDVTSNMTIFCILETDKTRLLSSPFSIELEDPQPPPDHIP

B7-H4 = target: T8, B7-H4 (UniProt Q7Z7D3 29-258, limits assumed); assay: as above
T8 sequence (looked up): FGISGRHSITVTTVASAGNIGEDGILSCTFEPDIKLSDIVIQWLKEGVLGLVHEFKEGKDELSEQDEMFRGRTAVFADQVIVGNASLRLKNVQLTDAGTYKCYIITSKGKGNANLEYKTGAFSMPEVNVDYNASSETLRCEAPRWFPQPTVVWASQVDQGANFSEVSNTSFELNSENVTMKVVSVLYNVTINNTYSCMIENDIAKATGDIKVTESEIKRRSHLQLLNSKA

B7-1 = target: T9, B7-1 (UniProt P33681 35-242, limits assumed); assay: as above
T9 construct: also called CD80
T9 sequence (looked up): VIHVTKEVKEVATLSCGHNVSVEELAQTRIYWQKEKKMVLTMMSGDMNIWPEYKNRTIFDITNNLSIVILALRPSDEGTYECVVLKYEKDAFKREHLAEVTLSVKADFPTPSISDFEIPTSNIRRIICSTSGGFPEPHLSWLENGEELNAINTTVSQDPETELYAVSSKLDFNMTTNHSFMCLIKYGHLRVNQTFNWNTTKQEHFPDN

[6] = target: T2, human PD-L1 expressed on cells; assay: flow cytometry on NCI-H460 cells, Mean FITC-A
T2 sequence (Q9NZQ7 19-290): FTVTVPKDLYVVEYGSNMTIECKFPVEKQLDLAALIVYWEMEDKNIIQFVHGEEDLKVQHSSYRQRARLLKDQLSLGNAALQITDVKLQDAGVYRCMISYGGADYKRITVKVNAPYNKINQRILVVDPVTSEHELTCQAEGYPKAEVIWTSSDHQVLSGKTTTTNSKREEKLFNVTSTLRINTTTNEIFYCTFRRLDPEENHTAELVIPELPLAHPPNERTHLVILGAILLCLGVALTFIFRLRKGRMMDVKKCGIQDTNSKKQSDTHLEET

human TGFβ1 [7] = target: T1, human TGFβ1; assay: ELISA, human TGFβ1 (0.5 ug/mL) coated, anti-human Fc-HRP, OD450
[8] = target: T10, Human TGFβ3 (Genscript, Z03430) (human, UniProt P10600 301-412); assay: ELISA; TGFβ3 coated, fusion titrated, anti-human Fc-HRP
T10 sequence (looked up): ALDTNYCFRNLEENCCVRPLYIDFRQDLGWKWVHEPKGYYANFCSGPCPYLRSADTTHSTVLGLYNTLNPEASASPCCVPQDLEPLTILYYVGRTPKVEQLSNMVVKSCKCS

UniProt P04202, sequence (P04202 279-390 limits assumed): as the sequence (P01137 279-390 limits assumed) above, with A75S counted along it

EC50 (human TGFβ1 [1]): 748 pM
EC50 [2]: 800 pM
EC50 [3]: 261 pM
EC50 [4]: 240 pM
EC50 (cyno PD-L1): 189 pM
IC50 (cynoPD-L1-Fc): 1830 pM
IC50 of blocking TGFβ1 signaling (TGFβ reporter HEK-293 cell line, luciferase) (human TGFβ1 [5]): 350 pM
binding result (VISTA): no binding (tested: 100 nM)
binding result (B7-H3): no binding (tested: 100 nM)
binding result (B7-H2): no binding (tested: 100 nM)
binding result (B7-2): no binding (tested: 100 nM)
binding result (B7-H4): no binding (tested: 100 nM)
binding result (B7-1): no binding (tested: 100 nM)
EC50 [6]: 300 pM
EC50 (read off the curve) (human TGFβ1 [7]): ~900 pM
EC50 [8]: 5260 pM
B1: AM4B6-hIgG1-TGFβRII′ (other)
heavy: QVQLVQSGAEVKKPGASVKVSCKASGYVFTDYYMNWVRQAPGQSLEWMGDINPNNAETLYNHKFKGRVTVTVDKSISTAYMELSRLRSDDTAVYYCVKWGDGPFAYWGQGTLVTVSS[human IgG1 constant region omitted here]GGGGSGGGGSGGGGSGGGGSGGAVKFPQLCKFCDVRFSTCDNQKSCMSNCSITSICEKPQEVCVAVWRKNDENITLETVCHDPKLPYHDFILEDAASPKCIMKEKKKPGETFFMCSCSSDECNDNIIFSEEYNTSNPD
light: DIQMTQSPSSLSASVGDRVTITCKASQNVGAAVAWYQQKPGKAPKLLIYSVSDRYTGVPSRFSGSGSGTDFTLTISSLQPEDIATYYCQQYSNYPTFGQGTKLEIKRTVAAPSVFIFPPSDEQLKSGTASVVCLLNNFYPREAKVQWKVDNALQSGNSQESVTEQDSKDSTYSLSSTLTLSKADYEKHKVYACEVTHQGLSSPVTKSFNRGEC

Reference: patent US20250282874A1 (SUZHOU TRANSCENTA THERAPEUTICS, published 2025)
